Measured values from publication PMC4336329 (PLoS ONE, 2015).
Screen size: about 310,000 compounds; about 14,000 (4.5%) showed an effect of 50% or more. Effects have a minus sign here. Some of the results follow.

Target: human ether-à-go-go-related gene (hERG) potassium channel (human, UniProt Q12809)
Assay: primary screen, population patch clamp on CHO cells stably expressing hERG
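Note: peak tail current of the secondary pulse compared with the same well before compound.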

human ether-à-go-go-related gene (hERG) potassium channel, sequence (Q12809 whole entry, looked up): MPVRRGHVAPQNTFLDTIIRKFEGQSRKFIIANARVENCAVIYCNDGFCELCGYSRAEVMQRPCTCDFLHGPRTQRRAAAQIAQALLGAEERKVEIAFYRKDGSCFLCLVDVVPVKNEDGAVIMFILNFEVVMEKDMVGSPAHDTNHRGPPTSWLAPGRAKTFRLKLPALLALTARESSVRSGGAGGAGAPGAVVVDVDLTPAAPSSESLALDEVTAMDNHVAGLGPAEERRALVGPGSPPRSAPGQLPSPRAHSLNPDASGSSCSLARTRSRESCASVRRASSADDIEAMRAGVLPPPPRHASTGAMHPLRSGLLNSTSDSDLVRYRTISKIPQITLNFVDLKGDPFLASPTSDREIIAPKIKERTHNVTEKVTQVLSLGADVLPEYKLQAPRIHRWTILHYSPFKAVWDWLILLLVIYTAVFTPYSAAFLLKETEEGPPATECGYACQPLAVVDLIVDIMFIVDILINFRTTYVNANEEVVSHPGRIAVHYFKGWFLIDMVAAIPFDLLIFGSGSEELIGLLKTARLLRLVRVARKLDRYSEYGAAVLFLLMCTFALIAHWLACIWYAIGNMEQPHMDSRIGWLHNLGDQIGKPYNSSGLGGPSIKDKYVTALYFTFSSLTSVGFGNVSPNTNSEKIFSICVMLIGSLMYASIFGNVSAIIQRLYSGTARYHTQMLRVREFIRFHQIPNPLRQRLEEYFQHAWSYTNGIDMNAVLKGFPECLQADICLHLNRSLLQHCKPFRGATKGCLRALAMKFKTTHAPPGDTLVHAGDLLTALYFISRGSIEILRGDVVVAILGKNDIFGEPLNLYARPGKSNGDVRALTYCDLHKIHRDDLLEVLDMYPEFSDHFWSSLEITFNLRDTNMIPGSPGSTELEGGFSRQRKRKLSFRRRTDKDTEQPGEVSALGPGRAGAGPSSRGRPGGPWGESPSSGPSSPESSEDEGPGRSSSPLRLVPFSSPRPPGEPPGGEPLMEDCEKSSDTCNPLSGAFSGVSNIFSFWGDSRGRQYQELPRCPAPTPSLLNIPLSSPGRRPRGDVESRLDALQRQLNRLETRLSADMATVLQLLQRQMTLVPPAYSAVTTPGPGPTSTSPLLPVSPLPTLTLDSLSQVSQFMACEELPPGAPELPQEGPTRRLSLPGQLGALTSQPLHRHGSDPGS

Row | SMILES | hERG current change (%, negative = inhibition) at 10uM
1 | COc1ccc(CSCC(=O)NCCC(C)C)cc1 | -5.91%
2 | COc1cc2c(c(OC)c1OC)-c1ccc(O)cc1[C@@H](NC(C)=O)CC2 | 7.88%
3 | O=C(NCCc1ccccn1)c1nc(Cn2cc(Br)cn2)no1 | 11.4%
4 | O=C(COC(=O)/C=C/c1ccccc1)NCC1CCCO1 (stereo not drawn) | 16.7%
5 | CN(C)/C=C(/C(=O)c1ccccc1Cl)S(=O)(=O)c1ccccc1 | 8.64%
6 | COc1cc(/C=C(/C)[N+](=O)[O-])ccc1OCc1ccccc1Cl | 17.3%
7 | COc1ccc(C(=O)N[C@H](C(=O)NCc2cccs2)C(C)C)cc1 | 15.1%
8 | CC1CC(C)CN(CCCNS(=O)(=O)c2cc(Br)cc3c2N(C(=O)C2CC2)CC3)C1 (stereo not drawn) | -14.6%
9 | COc1ccc(CCNC(=O)c2ccc(CS(=O)(=O)c3ccc(C)cc3)o2)cc1OC | -8.2%
10 | c1ccc(N2CCN(c3ncccn3)CC2)cc1 | -3.68%
11 | CCCCOc1ccccc1C1NC(=O)NC(C)=C1C(=O)OCc1ccco1 (stereo not drawn) | 13%
12 | c1ccc(CN2CCCC3(CCCN(Cc4nc(COc5ccccc5)no4)C3)C2)cc1 (stereo not drawn) | -69.3%
13 | C[N+]1(CC(O)c2ccccc2)CCCCCC1.[I-] (stereo not drawn) | 17.8%
14 | O=C(NCC(=O)N1CCCC1)c1ccc(Br)cc1 | 16.3%
15 | Cc1ccc(S(=O)(=O)N2CCN(C(=O)/C=C/c3ccco3)CC2)cc1 | -35.1%
16 | O=C(/C=C/Nc1cccc([N+](=O)[O-])c1)c1cccs1 | -3.94%
17 | CCNc1nc(NCC)nc(N/N=C/c2ccccc2)n1 | 4.81%
18 | COc1cccc(S(=O)(=O)Nc2cccc(C(=O)N3CCCCCC3)c2)c1 | -0.841%
19 | C[C@H](NC(=O)NCc1cccs1)C(=O)O | 5.23%
20 | CCN(c1ccccc1)S(=O)(=O)c1csc(C(N)=O)c1 | 1.38%
21 | COCCn1c(-c2ccc(OC)cc2)cnc1SCC(=O)Nc1cc(C)on1 | 2.53%
22 | COCCn1c(COc2cccc(OC)c2)nnc1SCC(=O)N1CCOCC1 | 13.5%
23 | C[n+]1ccc(/C=C/c2ccccc2O)c2ccccc21.[I-] | 2.43%

Row | SMILES | hERG current change (%, negative = inhibition) at 10uM
24 | CCCc1cc(C(=O)Nc2ccc(Cl)cn2)cs1 | 3.15%
25 | COc1c(C)cc(C(=O)C2CCCN(C(=O)c3cc(C)n(C)n3)C2)cc1C (stereo not drawn) | -20.4%
26 | CN1CCC(N(C)S(=O)(=O)c2ccc(Cl)cc2)CC1 | -15.6%
27 | COc1ccc(NC(=O)NCCc2cccc(Cl)c2)cc1OC | 12.9%
28 | O=C(NCc1ccc2c(c1)OCO2)c1nc(Cn2cc(Br)cn2)no1 | -8.87%
29 | CCCCCC(=O)Nc1cccc(C2=NOC3(C2)C[C@@H](C(N)=O)N(C(=O)CC(c2ccccc2)c2ccccc2)C3)c1 (stereo partly drawn) | -6.08%
30 | CCN(CC)c1ccc(C(=O)OCC(=O)N2CCN(c3ccccc3)CC2)cc1 | 7.62%
31 | O=C1/C(=C/c2ccsc2)N2CCC1CC2 | 6.29%
32 | COC(=O)/C(C#N)=C1/C=Cc2ccccc2N1C | -2.99%
33 | CC1=C(C(=O)N2CCOCC2)C(c2cccc(C)c2)NC(=S)N1 (stereo not drawn) | 10.7%
34 | CN(C(=O)c1coc(=O)c2ccccc12)c1ccccc1Cl | -8.76%
35 | CC(/C=N/N1C(=O)CSC1=S)=C\c1ccccc1 | 17.5%
36 | O=C(CN1CCN(S(=O)(=O)/C=C/c2ccccc2)CC1)NCC(F)(F)F | -7.5%
37 | Cc1cc(C)cc(N=Cc2ccc([N+](=O)[O-])s2)c1 | 2.51%
38 | O=C(NCC(c1ccco1)N1CCN(c2ccc(F)cc2)CC1)c1ccco1 (stereo not drawn) | -25.7%
39 | Cc1nc2c(C#N)c[nH]n2c(=O)c1Cc1ccccc1 | 1.48%
40 | COc1ccccc1C(NC(=O)CC(C)C)c1c(O)ccc2ccccc12 (stereo not drawn) | 18.7%
41 | CCOCCCNC(=O)/C(C#N)=C/c1ccc([N+](=O)[O-])o1 | 12.7%
42 | CCC(=O)N1CCc2cc(-c3csc(NC(=O)c4ccco4)n3)ccc21 | 19.9%
43 | CCCCC(=O)Nc1cc(OC)c(NC(=O)C2CCCCC2)cc1OC | 11.5%
44 | COc1ccc2nc(NC(C)=O)sc2c1 | -4.83%
45 | O=C(NNS(=O)(=O)c1cc(Cl)c(Cl)cc1Cl)c1cccnc1 | -1.53%
46 | C=CCn1c(O)c(CN2CCN(Cc3ccccc3)CC2)c(C)c(C#N)c1=O | 4.17%

Row | SMILES | hERG current change (%, negative = inhibition) at 10uM
47 | O=C(NCC1CCCO1)C1CCCN(S(=O)(=O)c2cccc3nsnc23)C1 (stereo not drawn) | -0.558%
48 | COC(=O)CC1C(=O)NCCN1C(=O)CSc1nnc(Nc2ccc(C)cc2)s1 (stereo not drawn) | 3.19%
49 | Nc1nc(NCc2ccco2)nn1-c1ccccc1 | 12%
50 | C/C(=N/NC(=O)c1sc(NS(=O)(=O)c2ccccc2)nc1C)c1ccc(F)cc1 | 8.9%
51 | COc1ccccc1N(CC(=O)NCCC1=CCCCC1)S(=O)(=O)c1ccccc1 | -14.5%
52 | CNS(=O)(=O)c1cccc(C(=O)OCCCC(=O)c2ccccc2)c1 | -36.3%
53 | CS(=O)(=O)N1CCc2cc(S(=O)(=O)Nc3ccc4oc5c(c4c3)CCCC5)ccc21 | 3.08%
54 | O=C(COc1ccccc1)N1CCN(CC2CC=CCC2)CC1.O=C(O)C(=O)O (stereo not drawn) | -38.6%
55 | COCCN(C(=O)CNC(=O)c1cccs1)C(C(=O)NC1CCCCC1)c1ccco1 (stereo not drawn) | -14.9%
56 | Cc1cc2c(=O)n(C)c(SCC(=O)c3cc4ccccc4o3)nc2s1 | 11.1%
57 | COc1ccc(-c2nnc(NC(=O)Cc3ccccc3)s2)c(OC)c1 | 17.5%
58 | CCn1c(N2CCN(C(=S)NC)CC2)nc2ccccc21 | -30.2%
59 | COc1ccc(N2CC(C(=O)NCCC3=CCCCC3)CC2=O)c(OC)c1 (stereo not drawn) | -4.67%
60 | Cc1ccc(Nc2nnc(SCc3cc(=O)n4ccsc4n3)s2)c(C)c1 | -34.1%
61 | O=C(/C(=C/O)N=Nc1cccc(C(F)(F)F)c1)c1ccccc1 | 16.3%
62 | O=C(CSc1nncs1)NC(=O)Nc1ccc2c(c1)OCCO2 | -6.17%
63 | CC1(c2ccc(Cl)cc2)NC(=O)N(CC(=O)Nc2cccnc2Cl)C1=O (stereo not drawn) | -0.919%
64 | CCOc1ccc(Br)cc1S(=O)(=O)Nc1cccc(S(=O)(=O)N(C)C)c1 | -23.6%
65 | CC(c1ccccc1)n1c(Cn2ncc3ccccc3c2=O)n[nH]c1=S (stereo not drawn) | 10.9%
66 | COc1ccc(OC)c(N)c1.Cl | 20.5%
67 | CCOc1ccc2cc(/C=C/C(=O)c3ccco3)c(Cl)nc2c1 | 20.1%
68 | COC(=O)CCCCCCCCCC[N+]1(C)CCCCC1.[I-] | -0.248%
69 | CCOC(=O)Nc1ccc2c(c1)nc1n2CCN(CCOC)C1 | 19.9%

Row | SMILES | hERG current change (%, negative = inhibition) at 10uM
70 | Cc1nc(N)c(C#N)c(-c2ccc3c(c2)OCO3)c1C | 20.7%
71 | O=C(COC(=O)/C=C/c1ccccc1)Nc1ccc(Cl)cn1 | 46.7%
72 | Cc1c(-c2ccccc2)[n+](=O)c(-c2ccco2)c(C)n1[O-] | 7.02%
73 | CCn1c(=O)c(C(=O)Nn2c(C)nc3ccccc3c2=O)c(O)c2ccccc21 | -18.4%
74 | CCC(CC)C(=O)c1c[nH]c(C(=O)NCc2ccccn2)c1 | -1.16%
75 | O=C(NC1CCCC1)C(c1ccncc1)N(CCCN1CCOCC1)C(=O)c1ccc(-c2ccccc2)[nH]1 (stereo not drawn) | -61.1%
76 | CC(=O)N(O)CCCCCNC(=O)CCC(=O)N(O)CCCCCNC(=O)CCC(=O)N(O)CCCCCN.CS(=O)(=O)O | 13.5%
77 | Cc1ccc(/C=C/C(=O)N2CCCC(C)C2)cc1 (stereo not drawn) | -8.25%
78 | O=Nc1ccc(NOC(=O)c2ccccc2Br)cc1 | 3.45%
79 | O=C1/C(=C\c2ccc(Br)o2)SC(=Nc2ccccc2)N1c1ccccc1 | -10.1%
80 | CCOc1ccc(-n2ccnc2)nn1 | -0.284%
81 | O=C(NCc1ccc2c(c1)OCO2)c1ccc(CS(=O)(=O)Cc2cccc(Cl)c2)o1 | 5.36%
82 | CCC(=O)Nc1c2c(nn1-c1ccc(C)cc1C)CSC2 | -1.3%
83 | COc1cccc(NC(=O)CSCC(=O)Nc2ccccc2)c1 | -0.86%
84 | CCc1cccc(CC)c1-n1c(SCC(=O)c2c(N)n(C)c(=O)n(C)c2=O)nnc1-c1cccnc1 | -2.55%
85 | CCOc1c(Br)cc(/C=C2\N=C(C)OC2=O)cc1Br | 12.1%
86 | CCC(C)(C)n1nnnc1C(c1ccc(F)cc1)N1CCN(C(=O)c2ccco2)CC1 (stereo not drawn) | -41.9%
87 | CN1CCCC(C(O)(c2ccccc2)c2ccccc2)C1 (stereo not drawn) | 16.3%
88 | CCOC(=O)c1c(C)nc2cc(C)cc(C)n12 | 10.4%
89 | COc1cccc(C(C(=O)NC2CCCCC2)N(C(=O)c2ccccn2)c2cccnc2)c1 (stereo not drawn) | -16.8%
90 | O=C(CNC(=O)c1[nH]cnc1C(=O)N[C@@H](Cc1ccccc1)C(=O)OCc1ccccc1)OCc1ccccc1 | 7.48%
